Assay results: the supplement of paper PMC3334620
The full ranking holds about 33,000 sequences; the median of “E-score (-0.5 to 0.5)” is about -0.056, and the highest 2% start at about 0.38. The list shows a part of the results.

molecular target: Stb4 (UniProt P50104); assay: PBM E-score (8-mer binding enrichment) (E-score (-0.5 to 0.5)); higher = stronger / more preferred TF binding; most listed sequences are background and not binding sites; conditions: protein concentration: 200 nM; construct: GST-DNA-binding domain
How it was run: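 Masliner-normalised scans of fluorescent anti-GST signal were the basis for scoring. That signal came from GST-tagged yeast transcription factors applied at about 100-200 nM to double-stranded universal all-10-mer Agilent arrays on fresh or once-stripped slides. Each ungapped eight-base word, pooled with its reverse complement, received an E-score from the Universal PBM Analysis Suite.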

| Sequence | PBM E-score |
| --- | --- |
| CAGAACTA | -0.0215 |
| ATCCAATA | 0.0175 |
| AGCTACCG | 0.132 |
| AGTGTACG | -0.0843 |
| TATAAACA | -0.128 |
| CGCTGACG | -0.169 |
| TATGTGCA | -0.103 |
| ACTGGCCA | -0.0879 |
| GTCTCCGA | 0.352 |
| AAATTAAA | -0.0365 |
| ACGAAACA | -0.0702 |
| AATCTGCC | 0.0815 |
| GTCTGCCA | -0.126 |
| GTACCCTA | -0.206 |
| AACGTCTT | -0.199 |
| GCATCAGA | -0.218 |
| CCCCGGAG | 0.247 |
| GTCACAAA | 0.0709 |
| AATTCTCT | -0.0977 |
| CAGTTTGA | -0.0855 |
| GCCGCTCC | 0.103 |
| ACACCTGT | -0.163 |
| CGCTGCAA | -0.218 |
| AAGGCGCT | -0.212 |
| AACCGCAT | 0.15 |

| Sequence | PBM E-score |
| --- | --- |
| ATCGCGAC | -0.121 |
| AGTTCGCA | -0.158 |
| CCCAACGG | 0.00018 |
| AGAGGACA | -0.265 |
| ATCTAACC | 0.177 |
| CGAAGGCG | 0.119 |
| GTGTCATA | 0.0481 |
| CGTTTAAC | -0.194 |
| ACTAAACT | -0.227 |
| AATTGGCT | -0.0998 |
| ATGACAAA | -0.201 |
| CGAGCTAG | 0.0925 |
| AAGCCACC | -0.221 |
| CCTGAGAG | -0.247 |
| ACCCGTTC | 0.251 |
| CGCCGGTC | 0.0332 |
| CCGAGCCC | 0.444 |
| ATAGTTAA | -0.106 |
| GTTGAGCA | -0.0611 |
| GAAAGGAC | 0.121 |
| GACAGCTC | -0.137 |
| GATTGTGA | 0.0629 |
| TACTCTCA | -0.314 |
| CGAAGCGC | 0.144 |
| GACAGGCC | -0.121 |

| Sequence | PBM E-score |
| --- | --- |
| CGAAAGGC | 0.086 |
| GCGGCAGA | 0.136 |
| AGTTTGCC | 0.0128 |
| AAAATTGA | -0.0524 |
| CTACTGTA | -0.157 |
| TGGTCTAA | -0.176 |
| CCCTACCA | -0.102 |
| AACTCAAG | -0.133 |
| CGAAAGCG | 0.0228 |
| ACTTGGCG | -0.18 |
| GCGACCCC | -0.0691 |
| AGTTGGTA | -0.223 |
| AAGAATAG | -0.12 |
| AATGGAAC | 0.0496 |
| ACCAGAGC | -0.00449 |
| GGGACATA | 0.131 |
| ATCTCATG | -0.141 |
| CCTTGTCG | -0.17 |
| AGGGCTCC | -0.109 |
| GCAAAGAC | -0.166 |
| AACAGACG | 0.108 |
| AAACTTCG | 0.132 |
| ACATCGGC | 0.303 |
| GCATTCAC | 0.164 |
| ACAATAGT | -0.103 |

| Sequence | PBM E-score |
| --- | --- |
| AAGAATAA | -0.236 |
| AAGGAGCT | -0.192 |
| CTACATGC | -0.11 |
| GTCGTATA | -0.0318 |
| CCAGACGA | -0.102 |
| ATCTGGCA | -0.111 |
| ACGGCAAG | 0.187 |
| ACTTGGAA | -0.00131 |
| AATGCCAC | -0.0906 |
| GAATAGAC | -0.141 |
| GTTGATCA | -0.182 |
| CCAAAAGG | -0.262 |
| CCTCAATC | 0.119 |
| ACATAATA | -0.153 |
| GTGGGTGA | -0.0392 |
| ACTGATGA | -0.285 |
| GAAACCGA | 0.304 |
| AATCTAGG | -0.0333 |
| AGCGTGTA | -0.174 |
| ACAGTGTG | -0.241 |
| CATCGGAG | 0.204 |
| CTGATCAA | -0.123 |
| CCAGCAGA | -0.172 |
| CTGCAAGC | -0.0129 |
| CAGATCTG | -0.205 |

| Sequence | PBM E-score |
| --- | --- |
| AATTAAGT | 0.149 |
| AATTCAGA | -0.123 |
| CGACAAAC | 0.084 |
| ACTGGAGC | -0.143 |
| CGTCGTAC | -0.134 |
| GGCACGAA | -0.0259 |
| CAAAAGCG | -0.0484 |
| GGAATTCA | 0.138 |
| ACAAAACT | -0.101 |
| CACGGGGG | 0.0174 |
| TGACCTCA | -0.209 |
| CAATGCTG | -0.155 |
| GGAGTACA | 0.00514 |
| CTTGGCAA | -0.355 |
| GCCGTCAA | -0.0394 |
| CCTGATCC | 0.115 |
| CGAGCTTA | 0.172 |
| AAGCTTGT | -0.13 |
| CTTCTGCC | -0.0379 |
| GTTTGGCA | -0.0952 |
| AAGGTTTG | -0.107 |
| AGCGACAA | -0.15 |
| TATGGCAA | -0.0782 |
| CTGGAGCA | -0.262 |
| GACGGCTC | 0.155 |

| Sequence | PBM E-score |
| --- | --- |
| CCTATCTC | -0.0457 |
| AAATACCC | 0.272 |
| CTACGTAA | -0.00563 |
| ATGCCTGC | -0.0821 |
| CATACAGA | -0.0776 |
| ATGGAGGC | -0.205 |
| AAGTTCGA | 0.0503 |
| CTGTACGC | -0.106 |
| GCCGAAAA | 0.438 |
| AGTCAACT | -0.19 |
| CTAGTGCA | -0.159 |
| CAATCGGC | 0.21 |
| ACAAATTC | 0.0587 |
| GCCAAACA | -0.0024 |
| TGTGCCAA | -0.0346 |
| CCTGACAG | -0.17 |
| GCCGCACC | 0.122 |
| CCAAGCTC | -0.068 |
| CACAATAA | -0.255 |
| CAGTATTC | 0.0209 |
| GCAAAGCA | -0.0523 |
| GCTCGGCC | 0.289 |
| ACAGTACT | -0.225 |
| CTCCCGTC | 0.151 |
| AGGGCTCA | -0.326 |

| Sequence | PBM E-score |
| --- | --- |
| AATCGGGA | 0.342 |
| CTATCGAC | -0.0993 |
| CATTTTAG | 0.177 |
| CGCTCCAC | -0.0941 |
| ACAGCCTC | -0.146 |
| TCTTTACA | -0.128 |
| ATGGCATG | -0.0513 |
| AGCTAAAA | -0.0535 |
| TAGAGCAA | -0.356 |
| ATTCGAAG | -0.187 |
| AAGGCTGT | -0.0862 |
| AGGGCCTC | -0.156 |
| CGCGGTAA | 0.188 |
| GGTCGAAA | -0.161 |
| GACCCTAC | 0.0842 |
| GGTACTCA | 0.0578 |
| ATAGCGAT | -0.217 |
| CTGCCGTA | -0.0101 |
| GCACCATA | -0.021 |
| CTTTTGTC | 0.00367 |
| TATCACAA | -0.144 |
| CCCTTCAC | -0.306 |
